Some of the results follow. Binding of human transcription factors and regulators to the viral nucleoprotein by AlphaScreen, crude cell-free proteins, amounts not normalised, one pass. Fold of the Venus control; higher = more signal. No active / inactive call. Single-pass screen; sequences are the whole Swiss-Prot entries looked up by name.
B1: TRIM14, Q14142 (protein)
chain: MAGAATGSRTPGRSELVEGCGWRCPEHGDRVAELFCRRCRRCVCALCPVLGAHRGHPVGLALEAAVHVQKLSQECLKQLAIKKQQHIDNITQIEDATEKLKANAESSKTWLKGKFTELRLLLDEEEALAKKFIDKNTQLTLQVYREQADSCREQLDIMNDLSNRVWSISQEPDPVQRLQAYTATEQEMQQQMSLGELCHPVPLSFEPVKSFFKGLVEAVESTLQTPLDIRLKESINCQLSDPSSTKPGTLLKTSPSPERSLLLKYARTPTLDPDTMHARLRLSADRLTVRCGLLGSLGPVPVLRFDALWQVLARDCFATGRHYWEVDVQEAGAGWWVGAAYASLRRRGASAAARLGCNRQSWCLKRYDLEYWAFHDGQRSRLRPRDDLDRLGVFLDYEAGVLAFYDVTGGMSHLHTFRATFQEPLYPALRLWEGAISIPRLP
B2: ZFAT, Q9P243 (protein)
chain: METRAAENTAIFMCKCCNLFSPNQSELLSHVSEKHMEEGVNVDEIIIPLRPLSTPEPPNSSKTGDEFLVMKRKRGRPKGSTKKSSTEEELAENIVSPTEDSPLAPEEGNSLPPSSLECSKCCRKFSNTRQLRKHICIIVLNLGEEEGEAGNESDLELEKKCKEDDREKASKRPRSQKTEKVQKISGKEARQLSGAKKPIISVVLTAHEAIPGATKIVPVEAGPPETGATNSETTSADLVPRRGYQEYAIQQTPYEQPMKSSRLGPTQLKIFTCEYCNKVFKFKHSLQAHLRIHTNEKPYKCPQCSYASAIKANLNVHLRKHTGEKFACDYCSFTCLSKGHLKVHIERVHKKIKQHCRFCKKKYSDVKNLIKHIRDAHDPQDKKVKEALDELCLMTREGKRQLLYDCHICERKFKNELDRDRHMLVHGDKWPFACELCGHGATKYQALELHVRKHPFVYVCAVCRKKFVSSIRLRTHIKEVHGAAQEALVFTSSINQSFCLLEPGGDIQQEALGDQLQLVEEEFALQGVNALKEEACPGDTQLEEGRKEPEAPGEMPAPAVHLASPQAESTALPPCELETTVVSSSDLHSQEVVSDDFLLKNDTSSAEAHAAPEKPPDMQHRSSVQTQGEVITLLLSKAQSAGSDQESHGAQSPLGEGQNMAVLSAGDPDPSRCLRSNPAEASDLLPPVAGGGDTITHQPDSCKAAPEHRSGITAFMKVLNSLQKKQMNTSLCERIRKVYGDLECEYCGKLFWYQVHFDMHVRTHTREHLYYCSQCHYSSITKNCLKRHVIQKHSNILLKCPTDGCDYSTPDKYKLQAHLKVHTALDKRSYSCPVCEKSFSEDRLIKSHIKTNHPEVSMSTISEVLGRRVQLKGLIGKRAMKCPYCDFYFMKNGSDLQRHIWAHEGVKPFKCSLCEYATRSKSNLKAHMNRHSTEKTHLCDMCGKKFKSKGTLKSHKLLHTADGKQFKCTVCDYTAAQKPQLLRHMEQHVSFKPFRCAHCHYSCNISGSLKRHYNRKHPNEEYANVGTGELAAEVLIQQGGLKCPVCSFVYGTKWEFNRHLKNKHGLKVVEIDGDPKWETATEAPEEPSTQYLHITEAEEDVQGTQAAVAALQDLRYTSESGDRLDPTAVNILQQIIELGAETHDATALASVVAMAPGTVTVVKQVTEEEPSSNHTVMIQETVQQASVELAEQHHLVVSSDDVEGIETVTVYTQGGEASEFIVYVQEAMQPVEEQAVEQPAQEL
B3: ZNF205, O95201 (protein)
chain: MSADGGGIQDTQDKETPPEVPDRGHPHQEMPSKLGEAVPSGDTQESLHIKMEPEEPHSEGASQEDGAQGAWGWAPLSHGSKEKALFLPGGALPSPRIPVLSREGRTRDRQMAAALLTAWSQMPVTFEDVALYLSREEWGRLDHTQQNFYRDVLQKKNGLSLGFPFSRPFWAPQAHGKGEASGSSRQAGDEKEWRGACTGAVEVGQRVQTSSVAALGNVKPFRTRAGRVQWGVPQCAQEAACGRSSGPAKDSGQPAEPDRTPDAAPPDPSPTEPQEYRVPEKPNEEEKGAPESGEEGLAPDSEVGRKSYRCEQCGKGFSWHSHLVTHRRTHTGEKPYACTDCGKRFGRSSHLIQHQIIHTGEKPYTCPACRKSFSHHSTLIQHQRIHTGEKPYVCDRCAKRFTRRSDLVTHQGTHTGAKPHKCPICAKCFTQSSALVTHQRTHTGVKPYPCPECGKCFSQRSNLIAHNRTHTGEKPYHCLDCGKSFSHSSHLTAHQRTHRGVRPYACPLCGKSFSRRSNLHRHEKIHTTGPKALAMLMLGAAAAGALATPPPAPT
B4: RWDD3, Q9Y3V2 (protein)
chain: MAEPVQEELSVLAAIFCRPHEWEVLSRSETDGTVFRIHTKAEGFMDVDIPLELVFHLPVNYPSCLPGISINSEQLTRAQCVTVKENLLEQAESLLSEPMVHELVLWIQQNLRHILSQPETGSGSEKCTFSTSTTMDDGLWITLLHLDHMRAKTKYVKIVEKWASDLRLTGRLMFMGKIILILLQGDRNNLKEYLILQKTSKVDVDSSGKKCKEKMISVLFETKVQTEHKRFLAFEVKEYSALDELQKEFETAGLKKLFSEFVLALVK
B5: NEUROD2, Q15784 (protein)
chain: MLTRLFSEPGLLSDVPKFASWGDGEDDEPRSDKGDAPPPPPPAPGPGAPGPARAAKPVPLRGEEGTEATLAEVKEEGELGGEEEEEEEEEEGLDEAEGERPKKRGPKKRKMTKARLERSKLRRQKANARERNRMHDLNAALDNLRKVVPCYSKTQKLSKIETLRLAKNYIWALSEILRSGKRPDLVSYVQTLCKGLSQPTTNLVAGCLQLNSRNFLTEQGADGAGRFHGSGGPFAMHPYPYPCSRLAGAQCQAAGGLGGGAAHALRTHGYCAAYETLYAAAGGGGASPDYNSSEYEGPLSPPLCLNGNFSLKQDSSPDHEKSYHYSMHYSALPGSRPTGHGLVFGSSAVRGGVHSENLLSYDMHLHHDRGPMYEELNAFFHN
B6: NKX2-1, P43699 (protein)
chain: MSMSPKHTTPFSVSDILSPLEESYKKVGMEGGGLGAPLAAYRQGQAAPPTAAMQQHAVGHHGAVTAAYHMTAAGVPQLSHSAVGGYCNGNLGNMSELPPYQDTMRNSASGPGWYGANPDPRFPAISRFMGPASGMNMSGMGGLGSLGDVSKNMAPLPSAPRRKRRVLFSQAQVYELERRFKQQKYLSAPEREHLASMIHLTPTQVKIWFQNHRYKMKRQAKDKAAQQQLQQDSGGGGGGGGTGCPQQQQAQQQSPRRVAVPVLVKDGKPCQAGAPAPGAASLQGHAQQQAQHQAQAAQAAAAAISVGSGGAGLGAHPGHQPGSAGQSPDLAHHAASPAALQGQVSSLSHLNSSGSDYGTMSCSTLLYGRTW
B7: GPBP1L1, Q9HC44 (protein)
chain: MAQHDFVPAWLNFSTPQSAKSPTATFEKHGEHLPRGEGRFGVSRRRHNSSDGFFNNGPLRTAGDSWHQPSLFRHDSVDSGVSKGAYAGITGNPSGWHSSSRGHDGMSQRSGGGTGNHRHWNGSFHSRKGCAFQEKPPMEIREEKKEDKVEKLQFEEEDFPSLNPEAGKQHQPCRPIGTPSGVWENPPSAKQPSKMLVIKKVSKEDPAAAFSAAFTSPGSHHANGNKLSSVVPSVYKNLVPKPVPPPSKPNAWKANRMEHKSGSLSSSRESAFTSPISVTKPVVLASGAALSSPKESPSSTTPPIEISSSRLTKLTRRTTDRKSEFLKTLKDDRNGDFSENRDCDKLEDLEDNSTPEPKENGEEGCHQNGLALPVVEEGEVLSHSLEAEHRLLKAMGWQEYPENDENCLPLTEDELKEFHMKTEQLRRNGFGKNGFLQSRSSSLFSPWRSTCKAEFEDSDTETSSSETSDDDAWK
B8: ISL1, P61371 (protein)
chain: MGDMGDPPKKKRLISLCVGCGNQIHDQYILRVSPDLEWHAACLKCAECNQYLDESCTCFVRDGKTYCKRDYIRLYGIKCAKCSIGFSKNDFVMRARSKVYHIECFRCVACSRQLIPGDEFALREDGLFCRADHDVVERASLGAGDPLSPLHPARPLQMAAEPISARQPALRPHVHKQPEKTTRVRTVLNEKQLHTLRTCYAANPRPDALMKEQLVEMTGLSPRVIRVWFQNKRCKDKKRSIMMKQLQQQQPNDKTNIQGMTGTPMVAASPERHDGGLQANPVEVQSYQPPWKVLSDFALQSDIDQPAFQQLVNFSEGGPGSNSTGSEVASMSSQLPDTPNSMVASPIEA
B9: HDAC3, O15379 (protein)
chain: MAKTVAYFYDPDVGNFHYGAGHPMKPHRLALTHSLVLHYGLYKKMIVFKPYQASQHDMCRFHSEDYIDFLQRVSPTNMQGFTKSLNAFNVGDDCPVFPGLFEFCSRYTGASLQGATQLNNKICDIAINWAGGLHHAKKFEASGFCYVNDIVIGILELLKYHPRVLYIDIDIHHGDGVQEAFYLTDRVMTVSFHKYGNYFFPGTGDMYEVGAESGRYYCLNVPLRDGIDDQSYKHLFQPVINQVVDFYQPTCIVLQCGADSLGCDRLGCFNLSIRGHGECVEYVKSFNIPLLVLGGGGYTVRNVARCWTYETSLLVEEAISEELPYSEYFEYFAPDFTLHPDVSTRIENQNSRQYLDQIRQTIFENLKMLNHAPSVQIHDVPADLLTYDRTDEADAEERGPEENYSRPEAPNEFYDGDHDNDKESDVEI
B10: ZNF18, P17022 (protein)
chain: MPVDLGQALGLLPSLAKAEDSQFSESDAALQEELSSPETARQLFRQFRYQVMSGPHETLKQLRKLCFQWLQPEVHTKEQILEILMLEQFLTILPGEIQMWVRKQCPGSGEEAVTLVESLKGDPQRLWQWISIQVLGQDILSEKMESPSCQVGEVEPHLEVVPQELGLENSSSGPGELLSHIVKEESDTEAELALAASQPARLEERLIRDQDLGASLLPAAPQEQWRQLDSTQKEQYWDLMLETYGKMVSGAGISHPKSDLTNSIEFGEELAGIYLHVNEKIPRPTCIGDRQENDKENLNLENHRDQELLHASCQASGEVPSQASLRGFFTEDEPGCFGEGENLPEALQNIQDEGTGEQLSPQERISEKQLGQHLPNPHSGEMSTMWLEEKRETSQKGQPRAPMAQKLPTCRECGKTFYRNSQLIFHQRTHTGETYFQCTICKKAFLRSSDFVKHQRTHTGEKPCKCDYCGKGFSDFSGLRHHEKIHTGEKPYKCPICEKSFIQRSNFNRHQRVHTGEKPYKCSHCGKSFSWSSSLDKHQRSHLGKKPFQ

The binders below were run against nucleoprotein N of Crimean-Congo hemorrhagic fever virus (assay: AlphaScreen luminescence signal relative to Venus negative control (fold); higher = stronger binding to CCHFV N).
Procedure: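 AlphaScreen binding of cell-free made, FLAG-GST-tagged human transcription factors and regulators (crude translation products) to biotinylated N protein; signal as fold of the FLAG-GST-Venus control. One pass.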
B1 showed an AlphaScreen luminescence signal of 2.84.
Work on B2 yielded an AlphaScreen luminescence signal of 3.4.
B3 gave an AlphaScreen luminescence signal of 1.77.
B4 was tested, and the AlphaScreen luminescence signal was 1.58.
B5 was tested, and the AlphaScreen luminescence signal was 3.72.
Binder B6 has an AlphaScreen luminescence signal of 2.74.
B7 gave an AlphaScreen luminescence signal of 10.2.
Work on B8 yielded an AlphaScreen luminescence signal of 1.67.
In the case of B9, the AlphaScreen luminescence signal is reported as 1.67.
B10 showed an AlphaScreen luminescence signal of 1.53.

From the supplement of paper PMC12423691
